Measurements: patent US20210340207A1 (Merck Sharp & Dohme, published 2021)

T1: Biotin-IL-2Rβ-His (UniProt P14784 27-239, limits assumed, biotin-labeled (site not stated))
T1 construct: also called biotin-labeled IL-2Rβ; not shown: His tag
T1 sequence (looked up): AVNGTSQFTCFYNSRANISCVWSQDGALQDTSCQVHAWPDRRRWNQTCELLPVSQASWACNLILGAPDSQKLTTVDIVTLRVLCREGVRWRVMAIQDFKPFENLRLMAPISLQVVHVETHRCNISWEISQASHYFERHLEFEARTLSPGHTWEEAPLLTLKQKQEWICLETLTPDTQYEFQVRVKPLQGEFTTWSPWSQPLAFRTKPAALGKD

T2: Biotin-IL-2Rα-His (UniProt P01589 22-213, limits assumed, biotin-labeled (site not stated))
T2 construct: also called biotin-labeled IL-2Rα; not shown: His tag
T2 sequence (looked up): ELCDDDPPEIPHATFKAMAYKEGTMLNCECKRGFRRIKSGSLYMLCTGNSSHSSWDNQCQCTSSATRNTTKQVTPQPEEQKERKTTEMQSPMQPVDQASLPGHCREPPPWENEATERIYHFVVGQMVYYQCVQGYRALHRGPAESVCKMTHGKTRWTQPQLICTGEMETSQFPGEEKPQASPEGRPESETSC

T3: human IL-2Rβγc (on DERL-7 cells, U2OS IL2RB/IL2RG cells, CD25 knockout Kit225-STAT5 cells, primary CD8+ CTLs) (human, UniProt P14784 27-551; P31785 23-369)
T3 sequence (looked up) 1: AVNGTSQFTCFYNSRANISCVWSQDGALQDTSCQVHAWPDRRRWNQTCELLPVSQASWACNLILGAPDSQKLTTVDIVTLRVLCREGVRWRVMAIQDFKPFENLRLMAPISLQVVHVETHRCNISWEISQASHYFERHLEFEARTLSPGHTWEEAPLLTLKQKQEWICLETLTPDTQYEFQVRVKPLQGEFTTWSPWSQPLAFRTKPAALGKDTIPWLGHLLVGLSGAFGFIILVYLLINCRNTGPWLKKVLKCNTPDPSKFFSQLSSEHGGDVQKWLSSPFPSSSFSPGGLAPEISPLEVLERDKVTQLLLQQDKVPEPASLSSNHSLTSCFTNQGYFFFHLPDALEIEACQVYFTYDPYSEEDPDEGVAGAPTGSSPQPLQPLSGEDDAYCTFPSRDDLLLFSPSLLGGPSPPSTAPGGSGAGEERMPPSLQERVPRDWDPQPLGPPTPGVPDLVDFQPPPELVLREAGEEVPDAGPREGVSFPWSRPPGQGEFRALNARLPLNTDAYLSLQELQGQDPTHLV
T3 sequence (looked up) 2: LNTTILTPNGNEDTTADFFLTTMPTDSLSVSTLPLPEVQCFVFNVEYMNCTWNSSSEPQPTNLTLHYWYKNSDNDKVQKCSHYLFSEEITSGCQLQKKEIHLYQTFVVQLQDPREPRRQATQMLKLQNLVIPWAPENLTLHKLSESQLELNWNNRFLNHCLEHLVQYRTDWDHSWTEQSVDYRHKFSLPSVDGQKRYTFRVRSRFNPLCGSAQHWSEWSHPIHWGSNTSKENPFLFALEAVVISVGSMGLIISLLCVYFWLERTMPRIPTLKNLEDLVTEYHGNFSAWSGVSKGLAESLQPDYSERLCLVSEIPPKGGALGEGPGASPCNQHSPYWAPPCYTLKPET

T4: mouse IL-2Rαβγc (on CTLL2-STAT5 reporter cells) (mouse, UniProt P01590 22-268; P16297 27-539; P34902 23-369)
T4 sequence (looked up) 1: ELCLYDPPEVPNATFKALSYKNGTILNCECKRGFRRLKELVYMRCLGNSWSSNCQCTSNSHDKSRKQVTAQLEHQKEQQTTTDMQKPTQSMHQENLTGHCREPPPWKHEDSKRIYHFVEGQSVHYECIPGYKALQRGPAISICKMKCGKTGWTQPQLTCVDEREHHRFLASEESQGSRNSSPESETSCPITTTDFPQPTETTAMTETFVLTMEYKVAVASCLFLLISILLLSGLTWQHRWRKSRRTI
T4 sequence (looked up) 2: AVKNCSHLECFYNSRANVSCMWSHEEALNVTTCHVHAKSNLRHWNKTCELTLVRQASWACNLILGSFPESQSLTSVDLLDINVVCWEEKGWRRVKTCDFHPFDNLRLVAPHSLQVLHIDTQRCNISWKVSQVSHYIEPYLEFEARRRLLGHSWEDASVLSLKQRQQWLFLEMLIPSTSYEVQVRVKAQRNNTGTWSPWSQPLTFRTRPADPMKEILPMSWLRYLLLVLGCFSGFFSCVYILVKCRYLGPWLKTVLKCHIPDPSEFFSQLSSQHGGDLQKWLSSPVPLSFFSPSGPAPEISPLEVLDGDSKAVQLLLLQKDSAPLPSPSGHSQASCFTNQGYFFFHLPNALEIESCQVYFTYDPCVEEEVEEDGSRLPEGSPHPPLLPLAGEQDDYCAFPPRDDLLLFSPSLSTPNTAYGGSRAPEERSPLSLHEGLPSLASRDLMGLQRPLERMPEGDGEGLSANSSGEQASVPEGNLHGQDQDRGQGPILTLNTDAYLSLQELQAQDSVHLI
T4 sequence (looked up) 3: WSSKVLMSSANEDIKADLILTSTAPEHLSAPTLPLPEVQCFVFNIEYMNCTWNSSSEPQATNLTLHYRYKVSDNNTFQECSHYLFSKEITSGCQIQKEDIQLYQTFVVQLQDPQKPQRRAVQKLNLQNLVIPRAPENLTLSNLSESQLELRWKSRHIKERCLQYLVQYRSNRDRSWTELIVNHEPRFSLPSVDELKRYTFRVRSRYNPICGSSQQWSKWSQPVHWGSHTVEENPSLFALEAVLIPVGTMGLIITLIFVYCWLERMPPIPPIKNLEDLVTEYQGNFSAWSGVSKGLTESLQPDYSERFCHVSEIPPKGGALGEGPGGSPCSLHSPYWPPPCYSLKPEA


Assays:
Biotin-IL-2Rβ-His = biological target: T1, Biotin-IL-2Rβ-His; test: SPR (Biacore T200)
Biotin-IL-2Rα-His = biological target: T2, Biotin-IL-2Rα-His; test: SPR (Biacore T200)
[1] = biological target: T3, human IL-2Rβγc (on DERL-7 cells, U2OS …); test: cell-based or functional assay
[2] = biological target: T4, mouse IL-2Rαβγc (on CTLL2-STAT5 …); test: cell-based or functional assay

Kd (Biotin-IL-2Rβ-His) | fold reduction over wt (Biotin-IL-2Rβ-His) | Kd (Biotin-IL-2Rα-His) | fold reduction over wt (Biotin-IL-2Rα-His) | U2OS-IL2Rbg EC50 [1] | CTLL2-STAT5 EC50 [2] | Binder
800 nM | 2 fold | 500 nM | 50 fold | 0.899 nM | 0.324 nM | Ald-6HIS_E60T (ligand) not shown
1000 nM | 3 fold | 300 nM | 30 fold | 0.865 nM | 0.012 nM | Ald-6HIS_K34D (ligand) not shown
 |  | 600 nM | 60 fold | 4.19 nM | 0.679 nM | Ald-6HIS_Y44V (ligand) not shown
400 nM | 1 fold | 10 nM | 1 fold | 0.68 nM | 0.006 nM | Ald-6HIS_L71I (ligand) not shown
600 nM | 2 fold | 30 nM | 3 fold | 0.879 nM | 0.007 nM | Ald-6HIS_E67G (ligand) not shown
800 nM | 2 fold | 50 nM | 5 fold | 0.468 nM | 0.006 nM | Ald-6HIS_T36D (ligand) not shown
600 nM | 2 fold | 500 nM | 50 fold | 0.614 nM | 0.216 nM | Ald-6HIS_T40D (ligand) not shown
600 nM | 2 fold | 500 nM | 50 fold | 0.753 nM | 0.018 nM | Ald-6HIS_R37G (ligand) not shown
600 nM | 2 fold | 100 nM | 10 fold | 1.63 nM | 0.033 nM | Ald-6HIS_K42G (ligand) not shown
2000 nM | 5 fold | 100 nM | 10 fold | 1.56 nM | 0.087 nM | Ald-6HIS_F41L (ligand) not shown
1000 nM | 3 fold | 900 nM | 90 fold | 0.623 nM | 5.11 nM | Ald-6HIS_E61S (ligand) not shown
500 nM | 1 fold | 40 nM | 4 fold | 0.485 nM | 0.005 nM | Ald-6HIS_K63G (ligand) not shown
500 nM | 1 fold | 10 nM | 1 fold | 0.608 nM | 0.005 nM | Ald-6HIS_P64A (ligand) not shown
